Test results published in the supplement of paper PMC10126150.
Values marked as one replicate rest on one cluster of the flow cell; about a third of the high ones do not repeat.

What follows are sequences tested on ATP (assay: switch fluorescence ratio, 500 uM ATP over buffer (Cy3 cluster intensity, sum of 5 cycles each) (fold (ratio)); higher = stronger signal-on switching upon ATP binding; sequences stand for … in TCGTCGGCAGCGTCAGATGTGTATAAGAGACAGTTTTTTTTTTTTTTTTTTTTTTTTT…TC). Conditions: aptamer strand: ATP DNA aptamer (quencher-CACCTGGGGGAGTATTGCGGAGGAAGG + anchor), 100 nM annealed; ATP concentration: 500 uM; one replicate.
In short: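 For every switch-domain sequence, the fluorescence ratio is the mean of per-cluster values, each being summed target-cycle Cy3 intensity over summed buffer-cycle Cy3 intensity. Clusters outside 100-1000 RFU were excluded. On a modified Illumina MiSeq flow-cell, the Cy3-labelled switching-strand clusters were annealed to 100 nM quencher-labelled ATP aptamer, imaged in selection buffer and then after 15 min with 500 uM ATP at 22 °C. Five such cycles were run, with NaOH stripping and re-annealing between them.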
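Also: ATP exposure 15 min at 22 °C before imaging.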

Sequence | switch fluorescence ratio
GCAGCTGGT | 1.03
GCAGCTGTCG | 1
GCAGCTTTTC | 1.4
GCAGGACAA | 1.27
GCAGGAGAAG | 1.01
GCAGGCCACG | 1.02
GCAGGCCCGG | 1.01
GCAGGCTTTT | 0.99
GCAGGGAGCA | 1.03
GCAGGGCAGG | 1.14
GCAGGTACT | 1.07
GCAGGTGCCC | 1.29
GCAGTAATGG | 1.51
GCAGTACAAT | 1.09
GCAGTCACCC | 1.13
GCAGTCGAGC | 0.99
GCAGTGTGA | 1.04
GCAGTTCTC | 1.09
GCAGTTGTTT | 1.03
GCAGTTTAT | 0.965
GCATAATGTG | 0.976
GCATACAAGT | 1.03
GCATAGATAA | 0.99
GCATAGCCGT | 0.973
GCATATATGT | 1.01

Sequence | switch fluorescence ratio
GCATCAAGGT | 1.03
GCATCACCGA | 0.982
GCATCATGGG | 0.964
GCATCATTGG | 1.02
GCATCCAGTC | 0.995
GCATCCATAA | 1.02
GCATCCTGTG | 0.995
GCATCTGGCT | 1.02
GCATCTGGGT | 1.03
GCATGAGTAA | 1.01
GCATGATTAC | 1.35
GCATGCATTT | 1.03
GCATGCCAGT | 0.987
GCATGCGAGT | 1.24
GCATGGCCCT | 1.06
GCATGGGGGA | 0.995
GCATGTGAAG | 0.977
GCATGTGTCC | 1.02
GCATTACT | 2.85
GCATTATGAG | 1.08
GCATTCACTT | 1.01
GCATTCTAGC | 0.975
GCATTGGCGC | 0.985
GCATTGGGTT | 0.961
GCCAAAAAAT | 0.964

Sequence | switch fluorescence ratio
GCCAAATTCC | 1.06
GCCAACGGGC | 0.958
GCCAATTACC | 1.11
GCCACAAGGT | 1.04
GCCACCGGAT | 1.08
GCCACGATGT | 1
GCCACTGATA | 1.04
GCCACTTGGG | 0.961
GCCAGAGAAG | 0.985
GCCAGATAAG | 1
GCCAGGAAGG | 0.996
GCCAGGAATC | 1.02
GCCAGGCCTG | 0.997
GCCAGGCGGG | 0.997
GCCAGTCGGA | 0.984
GCCATCCTC | 1.22
GCCATGACCG | 0.968
GCCATTTGTG | 1
GCCCATAGGT | 0.994
GCCCATCGG | 1.03
GCCCATGATG | 0.997
GCCCCACACG | 2.09
GCCCCACTGG | 1.51
GCCCCCAGTC | 1.27
GCCCCCGCGG | 1.22

Sequence | switch fluorescence ratio
GCCCCTTCAT | 1.04
GCCCCTTCGG | 0.985
GCCCGCCAAT | 2.27
GCCCGGGGCA | 1.02
GCCCGTACTG | 0.974
GCCCGTCATG | 0.999
GCCCTGCATA | 1.04
GCCCTGTACG | 1
GCCCTTACAC | 1.05
GCCCTTTGTA | 0.98
GCCGAAAAGG | 0.985
GCCGAAGGTA | 1.03
GCCGACGCGC | 1.5
GCCGACTTTG | 0.986
GCCGAGGAAA | 1.05
GCCGATATGA | 0.977
GCCGATGGGG | 1.05
GCCGATTGAT | 0.996
GCCGCGCCCT | 1
GCCGCGGTAT | 1.18
GCCGCGTTTT | 1.03
GCCGCTAATA | 3.3
GCCGGAACGT | 0.989
GCCGGAGCAT | 1.37
GCCGGGCCCG | 1.01

Sequence | switch fluorescence ratio
GCCGGGCTCA | 0.981
GCCGGGGCA | 0.917
GCCGGGGGAG | 1
GCCGGTGTTA | 1
GCCGTATCA | 0.978
GCCGTATGTG | 1.03
GCCGTCGAAT | 1.02
GCCTAATATA | 0.991
GCCTACCTAG | 1.03
GCCTACGAGT | 1.05
GCCTACTTCT | 1.02
GCCTAGTGCC | 0.982
GCCTAGTGGC | 1.03
GCCTATGGTA | 0.985
GCCTATGGTT | 1.13
GCCTCAACTG | 1
GCCTCGCAAA | 1.06
GCCTCGGA | 0.966
GCCTCGTTGC | 0.962
GCCTCTCGAG | 1.02
GCCTGATGTA | 1.01
GCCTGCTAGT | 1.01
GCCTGGAGAT | 0.969
GCCTGGATGA | 0.968
GCCTGTTGGG | 0.993

Sequence | switch fluorescence ratio
GCCTGTTTCA | 1.02
GCCTTACTAG | 1.08
GCCTTTTTGT | 0.998
GCGAAAACGG | 1.01
GCGAACAGTA | 1.02
GCGAATAAAA | 1.09
GCGAATGGGT | 0.952
GCGACAACGT | 1
GCGACAGGCC | 1.03
GCGACATTCG | 1.02
GCGACCGACG | 2.25
GCGACGAGCC | 1.07
GCGACGGCTG | 0.959
GCGACTGCAC | 0.993
GCGAGACATA | 1.02
GCGAGCGGTC | 1.07
GCGAGGACCC | 1.04
GCGAGTGTAG | 1.05
GCGAGTGTGG | 1.04
GCGATAAAGT | 0.969
GCGATAGCG | 0.968
GCGATAGGA | 1.08
GCGATATGCG | 1.05
GCGATGTCGT | 1.04
GCGATGTTTT | 0.936

Sequence | switch fluorescence ratio
GCGATTTTAG | 0.962
GCGCAACACC | 1.57
GCGCAAGAAT | 1.02
GCGCAAGACA | 2.43
GCGCACTGCC | 1.14
GCGCACTGGT | 1.03
GCGCAGGAAA | 1.24
GCGCATACGT | 1.66
GCGCCACTTC | 1.03
GCGCCAGGTA | 1.09
GCGCCATCTA | 1.04
GCGCCCAGCT | 0.97
GCGCCCAGGG | 1.06
GCGCCCGTGC | 1.03
GCGCCGCTTC | 1.03
GCGCGAATGG | 1.15
GCGCGCAGAG | 1.01
GCGCGCTATA | 1
GCGCGGGACT | 1.01
GCGCGGTATC | 1.1
GCGCGGTCTA | 1.05
GCGCGTACGT | 1.01
GCGCTACGAA | 1.19
GCGCTAGGTC | 0.998
GCGCTTGCCG | 1.03

Sequence | switch fluorescence ratio
GCGGAAGCGA | 1.08
GCGGACGCGC | 1.01
GCGGACTGGG | 1.02
GCGGAGTAGG | 1.02
GCGGATGCC | 0.98
GCGGCAACTT | 1.01
GCGGCAATTT | 1.08
GCGGCGACTG | 1
GCGGGATAAT | 1.03
GCGGGGGCCC | 1.03
GCGGGGGTAA | 0.97
GCGGGTCTTG | 1
GCGGGTGCAG | 0.986
GCGGTAAGCC | 0.991
GCGGTACCAT | 0.984
GCGGTAGTGC | 0.968
GCGGTATCAG | 0.921
GCGGTATTAA | 0.948
GCGGTCAATT | 1.19
GCGGTCGCTA | 1.02
GCGGTGCACG | 1
GCGGTGTATC | 1.06
GCGGTTCGGA | 1.02
GCGGTTTTTA | 1.05
GCGTAACGAG | 1.06
